Hit rate of the full screen: of about 130,000 compounds, about 1,200 (0.92%) were called active. The shares of active, inactive and inconclusive entries below differ from those in the screen. The call rests on the fitted dose curve; in most records, active means well fitted cell-killing curve with a large enough effect; inconclusive means small, poorly fitted or top-dose-only effect; inactive means no such curve, though single readings can be large or run the other way. Potencies of inconclusive entries are doubtful fits and often do not repeat.
Experiment: qHTS Screen for Compounds that Selectively Target Cancer Cells with p53 Mutations: Cytotoxicity of p53ts Cells at the Permissive Temperature; further: nearly all actives have a fitted effect of over 55% in size
Conditions: H1299-p53A138V at 32C, ATP luminescence viability, 24 h; series mostly up to 46.1 µM
Procedure, shortened: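 ATP-content luminescence (ATPlite) read-out after 24 h compound exposure at 32C in H1299-p53A138V cells (600/well). Tested up to 46 uM. Normalized to DMSO (0%) and 100 uM tamoxifen (100% killing); Hill-fit AC50.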
In the case of `COc1ccc(NC(=O)C2CCCN(c3nnc(C)c4c(C)n(-c5ccccc5)nc34)C2)cc1Cl` (centres undefined), the Potency was inconclusive: 20 µM [cytotoxic, single point]. With `O=C(Nc1ccc(-c2noc(CCc3ccccc3)n2)cc1)c1ccco1` the Potency was inconclusive: 25.1 µM [cytotoxic, single point]. In the case of `C=C(C)COc1ccc(-c2nc(N)ncc2-c2ccc(OC)cc2)c(O)c1`, the Potency was inconclusive: 31.6 µM [cytotoxic, single point]. For `Cc1cc(NS(=O)(=O)c2ccc3oc(=O)c4ncn(C)c4c3c2)ccc1Br`, the Potency was inconclusive: 31.6 µM [cytotoxic, single point]. With `O=C(O)c1cc(-c2ccc3cc4c(cc3c2)OCO4)nc2ccccc12` the Potency was active: 1.58 µM. With `O=C(Nc1ncc(Cc2ccccc2)s1)c1cccs1` the Potency was inconclusive: 20 µM [cytotoxic, single point]. For `Cc1ccc2oc(C(=O)NCc3ccc4c(c3)OCO4)c(C)c2c1`, the Potency was inconclusive: 25.1 µM [cytotoxic, single point]. For `CCOc1ccc(NC(=O)c2cnsn2)cc1`, the Potency was inconclusive: 12.6 µM [cytotoxic, partial curve]. For `Cc1nc(NCc2ccc3c(c2)OCO3)c2oc3ccccc3c2n1`, the Potency was “inactive”. In the case of `COc1ccc(-c2cc(C(=O)N3CCN(c4ccccc4)CC3)no2)cc1`, the Potency was inconclusive: 35.5 µM [cytotoxic, single point]. In the case of `Cc1cc(C)c(NC(=O)Cn2nnc(S(=O)(=O)c3ccc(C)c(C)c3)c2N)c(C)c1`, the Potency was inconclusive: 31.6 µM [cytotoxic, single point]. In the case of `NC(=O)c1c(NC(=O)c2cc3ccccc3o2)sc2c1CCC2`, the Potency was inconclusive: 12.6 µM [cytotoxic, partial curve]. With `Nc1nc2n[nH]nc2c(=O)[nH]1` the Potency was inconclusive: 10 µM [cytotoxic, partial curve, poor fit]. In the case of `CC1(C)Cc2c(sc3nc(-c4cccs4)n(N)c(=O)c23)CO1`, the Potency was inconclusive: 12.6 µM [cytotoxic, single point]. With `CCCS(=O)(=O)Nc1cc(-c2cn3ccc(C)cc3n2)ccc1C` the Potency was inconclusive: 10 µM [cytotoxic, partial curve]. For `COc1ccccc1-c1nc(-c2cccc(C)c2)no1`, the Potency was inconclusive: 31.6 µM [cytotoxic, single point]. With `Cc1c(Cl)cccc1-c1ccc(/C=C(\C#N)c2nc3ccccc3[nH]2)o1` the Potency was inconclusive: 10 µM [cytotoxic, partial curve]. For `COc1ccccc1N1CCN(c2nc(C)nc3c2oc2ccccc23)CC1`, the Potency was inconclusive: 31.6 µM [cytotoxic, single point]. With `Nc1cc(C2CCCC2)nn1-c1ccccc1` the Potency was active: 12.6 µM. With `COc1cc(NS(=O)(=O)c2cc(Br)cc3c2N(C(=O)C2CC2)CC3)cc(OC)c1` the Potency was active: 10 µM. For `CCOc1ccc(-c2nnc(SCC(=O)Nc3cc(C)ccc3OC)o2)cc1`, the Potency was inconclusive: 12.6 µM [cytotoxic, single point]. With `CCn1c(=O)n(CC)c2cc(N3CCCC3)c(NC(=O)Nc3cc(C)cc(C)c3)cc21` the Potency was inconclusive: 31.6 µM [cytotoxic, single point]. In the case of `Cc1cccc(-c2nnc(SCC(=O)N3CCCCC3)o2)c1`, the Potency was inconclusive: 25.1 µM [cytotoxic, single point]. In the case of `O=C(Nc1ccccc1F)c1oc2ccccc2c1NC(=O)c1c(F)cccc1F`, the Potency was inconclusive: 11.2 µM [cytotoxic, partial curve]. With `CC1CCN(Cc2nc3c(c(=O)n(C)c(=O)n3C)n2Cc2c(F)cccc2Cl)CC1` the Potency was “inactive”. In the case of `Cc1ccc(-c2csc(NC(=O)c3cccc(N4C(=O)CCC4=O)c3)n2)o1`, the Potency was inconclusive: 10 µM [cytotoxic, partial curve]. With `Cc1nn(C(=O)c2ccc3c(c2)OCO3)c(N)c1-c1ccccc1` the Potency was active: 12.6 µM. With `CCOc1ccc(NC(=O)CNS(=O)(=O)c2ccc(Br)s2)cc1` the Potency was “inactive”. With `O=C(Cc1cccs1)Nc1nc2c(s1)CCCC2` the Potency was inconclusive: 1.58 µM [cytotoxic, full curve, poor fit]. In the case of `Cc1nn(-c2ccccc2)c2sc(C(=O)Nc3cccc(O)c3)cc12`, the Potency was inconclusive: 35.5 µM [cytotoxic, single point]. In the case of `O=C(Nc1ccccc1)Nc1ccccc1`, the Potency was inconclusive: 10 µM [cytotoxic, partial curve]. For `Cn1c(=O)cc(OCC(=O)NCc2ccc(F)cc2Cl)c2ccccc21`, the Potency was “inactive”. In the case of `COc1ccc(CCNC(=O)CCCn2nc(C)c3sc4ccccc4c3c2=O)cc1OC`, the Potency was inconclusive: 12.6 µM [cytotoxic, partial curve]. With `CCOc1cccc(-c2nc3cc(C)ccc3o2)c1` the Potency was active: 15.8 µM. In the case of `CCOC(=O)CCS(=O)(=O)c1nc(-c2ccccc2)cc(C(F)(F)F)n1`, the Potency was inconclusive: 31.6 µM [cytotoxic, single point]. In the case of `O=C(Nc1cc(Cl)cc(Cl)c1)c1ccc(F)c(S(=O)(=O)NCc2ccccc2Cl)c1`, the Potency was inconclusive: 20 µM [cytotoxic, single point]. With `CCN(c1ccccc1)S(=O)(=O)c1nnc(NC(=O)c2ccco2)s1` the Potency was inconclusive: 2.51 µM [cytotoxic, full curve]. With `CC(C)Oc1ccc(CSc2nnc3n(C)c(=O)c4c5c(sc4n23)CCCC5)cc1` the Potency was “inactive”. With `Cc1cccc(-n2nnnc2S(C)(=O)=O)c1` the Potency was inconclusive: 25.1 µM [cytotoxic, single point]. For `Cc1ccc(-c2nc3s/c(=C\c4ccco4)c(=O)n3n2)cc1`, the Potency was “inactive”. In the case of `CCOC(=O)CSc1nc2ccc(NC(=O)c3ccccc3)cc2s1`, the Potency was inconclusive: 11.2 µM [cytotoxic, single point]. For `CCOC(=O)Cn1c(=O)oc2cc(S(=O)(=O)Nc3ccc(N(CC)CC)cc3C)ccc21`, the Potency was inconclusive: 15.8 µM [cytotoxic, single point]. For `Cc1nc2c(C(=O)NC(C)c3ccccc3)cnn2c(C)c1Cc1ccccc1` (centres undefined), the Potency was inconclusive: 20 µM [cytotoxic, single point]. For `COC(=O)c1cc2occc2n1Cc1nc(-c2ccc(C)cc2)oc1C`, the Potency was inconclusive: 7.94 µM [cytotoxic, partial curve].

From PubChem BioAssay AID924 (National Center for Advancing Translational Sciences (NCATS), 2007)
Potency means the concentration at half of the fitted maximal effect; tags describe the fitted curve by direction and shape.
